Test results from the supplement of paper PMC9446081.
The campaign covered roughly 39,000 compounds. About 220 (0.56%) showed activity. The list shows a part of the results.

These molecules were tested on Escherichia coli K-12 BW25113 (assay: relative growth (OD600 normalised to plate interquartile mean) (fraction); higher = less growth inhibition, active = 0.2 or less). Conditions: 50 µM; LB; incubation time: overnight (16-24 h).
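Also: static incubation at 37 °C against the wild-type strain, values averaged over two biological replicates.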

| Compound | relative growth |
| --- | --- |
| CN(C)CC(=O)N[C@@H]1CC[C@H](CC(=O)NCCN2CCCCC2)O[C@H]1CO | inactive: 1.03 |
| C[C@@H]1CN([C@H](C)CO)C(=O)c2cccc(NC(=O)Nc3ccc(F)cc3)c2O[C@H]1CN(C)CC1CCCCC1 | inactive: 0.898 |
| C[C@@H]1CN([C@H](C)CO)C(=O)c2cc(NC(=O)Cn3cnnn3)ccc2O[C@@H]1CN(C)S(=O)(=O)c1ccc(F)cc1 | inactive: 0.978 |
| CC(C)NC(=O)Nc1ccc2c(c1)CC(=O)N([C@H](C)CO)C[C@H](C)[C@H](CN(C)S(=O)(=O)c1cn(C)cn1)O2 | inactive: 1.02 |
| CC(C)NC(=O)N(C)C[C@H]1OCc2cn(nn2)CCCC(=O)N([C@H](C)CO)C[C@@H]1C | inactive: 1.03 |
| C=CCOC(=O)N(C)C[C@@H]1Oc2ccc(NC(=O)OCC3c4ccccc4-c4ccccc43)cc2C(=O)N([C@H](C)CO)C[C@H]1C | inactive: 1.01 |
| C[C@H]1CN([C@@H](C)CO)C(=O)Cc2cc(NC(=O)Cc3ccccc3)ccc2O[C@@H]1CN(C)C(=O)Nc1ccc(C(F)(F)F)cc1 | inactive: 1.04 |
| Cc1cc(=O)nc2[nH][nH]c(=S)n12 | inactive: 0.993 |
| CC(C)(O)c1cn(-c2ccc(-c3cc(F)c(CO)c(S(C)(=O)=O)c3)cc2F)c(C(C)(C)c2c(Cl)cccc2Cl)n1 | inactive: 1.03 |
| Cc1ccc(S(=O)(=O)N(C)C[C@H]2Oc3c(NC(=O)NC(C)C)cccc3C(=O)N([C@@H](C)CO)C[C@@H]2C)cc1 | inactive: 1.01 |
| C[C@H](CO)N1C[C@H](C)[C@@H](CN(C)S(=O)(=O)c2cn(C)cn2)Oc2ccc(NC(=O)CCN3CCOCC3)cc2C1=O | inactive: 0.95 |
| C[C@@H]1CN([C@@H](C)CO)C(=O)c2cc(Br)cnc2O[C@@H]1CN(C)S(=O)(=O)c1ccc(F)cc1 | inactive: 0.971 |
| C[C@@H]1CCCCO[C@@H](CN(C)C(=O)NC2CCCCC2)[C@H](C)CN([C@H](C)CO)C(=O)c2cc(NC(=O)NC3CCCCC3)ccc2O1 | inactive: 1.01 |
| CC(C)C#Cc1ccc2c(c1)O[C@H](CN(C)S(=O)(=O)c1cn(C)cn1)[C@H](C)CN([C@@H](C)CO)S2(=O)=O | inactive: 1.02 |
| C[C@H]1CN([C@@H](C)CO)C(=O)c2c(c3ccccc3n2C)-c2ccccc2CO[C@H]1CN(C)C(=O)c1ccc(F)cc1 | inactive: 1.02 |
| CN(C)CCN1C[C@H]2OCCN(Cc3cnn(C)c3)[C@H]2C1 | inactive: 1.01 |
| CC(=O)OCC(=O)C12OC3(CCCC3)OC1CC1C3CCC4=CC(=O)C=CC4(C)C3(F)C(O)CC12C (configuration not stated) | inactive: 0.893 |
| C[C@@H]1CCCCO[C@H](CN(C)Cc2ccc3c(c2)OCO3)[C@@H](C)CN([C@@H](C)CO)C(=O)c2cc(NC(=O)Nc3ccc(C(F)(F)F)cc3)ccc2O1 | inactive: 1.02 |
| COc1ccc(NC(=O)N(C)C[C@H]2OCCCC[C@@H](C)Oc3ccc(NC(=O)NC4CCCCC4)cc3C(=O)N([C@H](C)CO)C[C@@H]2C)cc1 | inactive: 1.03 |

| Compound | relative growth |
| --- | --- |
| C[C@@H]1CN([C@H](C)CO)C(=O)c2cc(NC(=O)C3CCCCC3)ccc2O[C@H]1CN(C)S(=O)(=O)c1cn(C)cn1 | inactive: 1.01 |
| C[C@@H]1CCCCO[C@@H](CN(C)S(=O)(=O)c2cn(C)cn2)[C@@H](C)CN([C@@H](C)CO)C(=O)c2cc(NS(=O)(=O)c3ccccc3)ccc2O1 | inactive: 1.01 |
| C[C@H](CO)N1C[C@H](C)[C@H](CN(C)Cc2ccc3c(c2)OCO3)OCCCC[C@H](C)Oc2ccc(NC(=O)Nc3ccc(F)cc3)cc2C1=O | inactive: 0.996 |
| C[C@@H]1CCCCO[C@@H](CN(C)S(=O)(=O)c2ccc(F)cc2)[C@H](C)CN([C@H](C)CO)C(=O)c2cc(NC(=O)Nc3cccc4ccccc34)ccc2O1 | inactive: 1.05 |
| CCC(=O)N1C[C@]2(C1)CN([C@@H](CO)c1[nH]c3cc(ccc3c12)OC)S(=O)(=O)C | inactive: 0.971 |
| C[C@H](NCc1ccc(OCC(N)=O)cc1)C(N)=O | inactive: 0.983 |
| Cc1noc(C)c1S(=O)(=O)N(C)C[C@@H]1Oc2ccc(NC(=O)NC3CCCCC3)cc2CC(=O)N([C@@H](C)CO)C[C@@H]1C | inactive: 1.01 |
| C[C@H](CO)N1C[C@H](C)[C@H](CN(C)C(=O)Nc2ccc3c(c2)OCO3)Oc2c(NC(=O)c3ccc(-c4nccs4)cc3)cccc2C1=O | inactive: 0.997 |
| C[C@H](CO)N1C[C@H](C)[C@@H](CN(C)Cc2ccc3c(c2)OCO3)Oc2c(NC(=O)c3cnccn3)cccc2C1=O | inactive: 0.969 |
| C[C@@H]1CCCCO[C@@H](CN(C)C(=O)Nc2ccccc2)[C@@H](C)CN([C@H](C)CO)C(=O)c2cc(NC(=O)Cc3ccccc3)ccc2O1 | inactive: 1.01 |
| C[C@@H]1CN([C@@H](C)CO)C(=O)c2cc(NC(=O)Cc3ccccc3)ccc2O[C@@H](C)CCCCO[C@@H]1CN(C)Cc1ccc(C(=O)O)cc1 | inactive: 1.02 |
| CO[C@@H]1CN(C)C(=O)c2cc(NS(C)(=O)=O)ccc2OC[C@H](C)N(C(=O)C2CCCCC2)C[C@H]1C | inactive: 1 |
| CC(C)C[C@@H]1NC(=O)[C@@H](C(C)C)NC(=O)[C@@H]2CCCN2C(=O)[C@@H](CC(=O)O)NC(=O)[C@@H](Cc2c[nH]c3ccccc23)NC1=O | inactive: 1.01 |
| COc1cccc(S(=O)(=O)N(C)C[C@H]2Oc3ncc(C#CC(C)C)cc3C(=O)N([C@@H](C)CO)C[C@@H]2C)c1 | inactive: 1.01 |
| CC(CCc1ccccc1)NCC(O)c1ccc(O)c(C(N)=O)c1.Cl (configuration not stated) | inactive: 1.09 |
| COc1ccc(S(=O)(=O)Nc2ccc3c(c2)C(=O)N([C@@H](C)CO)C[C@@H](C)[C@@H](CN(C)C(=O)Nc2ccc(C(F)(F)F)cc2)OCCCC[C@@H](C)O3)cc1 | inactive: 1 |
| Cn1cc(C(=O)N2CCN(CC(N)=O)CC2)c2nn(-c3ccccc3)c(=O)c-2c1 | inactive: 0.983 |
| C[C@H](CO)N1C[C@H](C)[C@H](CN(C)Cc2ccc(Oc3ccccc3)cc2)Oc2c(NC(=O)c3ccc(-c4nccs4)cc3)cccc2C1=O | inactive: 1.02 |
